This note sets out measurements from patent US11246910B2, “Methods of treating immunological disorders using immunosuppressive compositions” (Singapore Health Services Pte Ltd, priority 2016, dated 2022).

In one experiment the test system is DBA/1J mice with CIA. Description: Collagen-induced arthritis (CIA) mouse model. Format: in vivo. To be noted: treatment started on mice with mild arthritis (FIG. 21A). As to the method:
Arthritis was induced in 8 to 10 week-old DBA/1J mice following immunization with collagen and complete Freund's adjuvant (CFA) (Chondrex, USA). Complete Freund's adjuvant was prepared by mixing heat-inactivated mycobacterial strain H37RA in incomplete Freund's adjuvant (4 mg/mi). Lyophilized bovine type II collagen (Chondrex, USA) was dissolved overnight in acetic acid at 2 mg/ml. Complete Freund's adjuvant and collagen were mixed at a ratio of 1:1 to form an emulsion. 100 μg of collagen, which was then injected intradermally at the base of the tail. Mice were scored for arthritis weekly from day 30 after immunization. 50 ng/ml of CXCL5 was given twice/week to CIA mice for 3 consecutive weeks, to around day 40 to 50 post-induction, when mice started to show the arthritis symptoms. Mice treated with dPBS, bone marrow-derived mesenchymal stem cells (BM-MSCs; 5-10×10^6 cells/kg, single injection) and Prednisolone (Pred) (1 mg/kg/day for first 10 days, 0.5 mg/kg/day for the second 10 days) were used as positive and standard controls, respectively. Injection volume was normalized to the body weight of the mice. Mice were monitored for another 3 weeks post-treatment and then sacrificed for further analysis. Peripheral blood (PB) was collected on day 15 and day 42 post-treatment. Isolated blood cells and plasma were used for flow cytometry analysis and Luminex assay. […]

Experiment [1] deals with two HLA-mismatched UCB-MNCs. Description: Mixed lymphocyte reaction (MLR), cell-mediated cytotoxicity by LDH detection (in vitro GVHD model). Format: cell-based, human. To be noted: lowest concentration giving maximum repression of cytotoxicity in MLR (FIG. 3). As to the method:
MLR served as an in vitro GVHD model and was initiated by co-culturing two HLA-mismatched UCB-MNCs at 15:1 effector/target (E/T) ratios in […] medium (Stem Cell Technologies) for 20 hours in 37° C., 5% CO2 incubator. The mixed lymphocytes (ML) were treated with BM-MSCs by co-culture without transwell inserts (i.e. physical direct contact) or with transwell inserts (i.e. indirect bidirectional regulation via the two secretomes) or with BM-MSC-conditional medium. Transwell inserts were placed at 0.5 mm and 0.9 mm above the well bottom, and the 1-day old BM-MSC culture medium was used as conditional medium (1d-CM). Untreated MLR was used as a negative control to set the cell-mediated cytotoxicity baseline of the MLR. The cell-mediated cytotoxicity was measured by lactate dehydrogenase (LDH) cytotoxicity detection kit (Roche). Following the kit instruction, the detection plate was incubated in the dark for 20 minutes at room temperature, and absorbance was measured at 490 nm with 650 nm as reference wavelength using Benchmark Plus microplate spectrophotometer (Bio-Rad).
All the proteins and antibodies were purchased from Peprotech. For each molecule, the lowest working concentration that caused the maximum repression of cytotoxicity by MLR was used for further analysis. In order to determine the optimal combination of interested cytokines, the twelve molecules were arranged in a 2^12 fractional FD table (Table 3). There were twelve factors with two levels. Level-1 meant without addition of this interested molecule, level-2 meant addition of this interested molecule with optimal working concentration. Condition-1 without addition of any interested molecules served as negative control; Condition-16 with addition of full panel of interested molecules and MLR laid on MSCs served as positive control respectively.
Based on the maximal extend attenuating cell-mediated cytotoxicity, another 2^7 factorial FD (Table 4) was derived from Condition-6 in 2^12 fractional FD, which involved IL-10, OPG, CXCL5, CXCL6, CCL20 anti-CCL1 and anti-CCL24.
Similarly, a 2^4 full FD (Table 5) was further derived from Condition-6 in 2^7 fractional FD, which involved OPG, CXCL5, anti-CCL1 and anti-CCL24.

Experiment [2] concerns DBA/2J mice with bleomycin-induced skin fibrosis. As to the kind of experiment: Bleomycin-induced scleroderma (systemic sclerosis) mouse model. It is filed as in vivo. To be noted: after 3-week treatment (FIG. 22A). As to the method:
Skin fibrosis was induced in 6 to 8-week-old DBA/2J mice by subcutaneous injection of bleomycin (0.5 mg/mi) into defined areas of 1 cm^2 on the lower back every other day, for 21 days. After a 3-week bleomycin challenge, another 3-week treatment was followed. 50 ng/ml of CXCL5 was given twice/week for 3 consecutive weeks. Mice treated with dPBS, bone marrow-derived mesenchymal stem cells (BM-MSCs; 5-10×10^6 cells/kg, single injection) and Prednisolone (Pred) (1 mg/kg/day for first 10 days, 0.5 mg/kg/day for the second 10 days) were used as positive and standard controls. Mice were sacrificed on day 21 post-treatment and the injected skin and peripheral blood were processed for further analysis.
Lesioned skin areas were excised, fixed in 10% formalin, and embedded in paraffin. Sections (5 μm thick) were stained with hematoxylin & eosin (H&E). The dermal thickness was analyzed at 100-fold magnification by measuring the distance between the epidermal-dermal junction and the dermal-subcutaneous fat junction at four sites from the lesioned skin of each mouse. Dermal leukocyte infiltration was counted on randomly-taken photos with High Power Field (HPF) (400×). Five photos were taken for each mouse. The average cell number of these five photos was used for counting the leukocyte infiltration. Two independent examiners performed the evaluation.

The subject of experiment [3] is C57BL/6 (B6) mice with DAH. As to the kind of experiment: Pristane-induced diffuse alveolar haemorrhage (DAH) mouse model. To be noted: for effector cells in lung, BALF and blood: FIGS. 18C, 18D; for prevalence of moderate to severe diffuse alveolar haemorrhage: day 14 post pristane (FIG. 18A). Format: in vivo.

In the case of `CN(Cc1cnc2nc(N)nc(N)c2n1)c1ccc(C(=O)N[C@@H](CCC(=O)O)C(=O)O)cc1` [MTX, methotrexate, reference compound], in the experiment on DBA/1J mice with CIA, the “disease activity index (DAI)” value worked out at 11.5±2.8. Take `CCCCC[C@H](O)/C=C/[C@H]1[C@H](O)CC(=O)[C@@H]1C/C=C\CCCC(=O)O` [PGE2, prostaglandin E2, reference compound]: the “optimal in vitro working concentration” value in experiment [1] was 2 µM. Turning to `C[C@]12C=CC(=O)C=C1CC[C@@H]1[C@@H]2[C@@H](O)C[C@@]2(C)[C@H]1CC[C@]2(O)C(=O)CO` [Prednisolone, reference compound], the skin thickness in experiment [2] is reported as 309.0±95.3 μm. Moreover, in experiment [3], the “effector cells in lung, BALF and blood” value was “reduction in the accumulation of macrophages in bronchoalveolar lavage fluid”; the “prevalence of moderate to severe diffuse alveolar haemorrhage” value is 76.5%. As for CCL7: MSC-derived protein CCL7 (MCP-2), the “optimal in vitro working concentration” value in experiment [1] is 50 ng/mL. Same read-out and setting: under “CCL20: MSC-derived protein CCL20 (MIP-3α)” stands 50 ng/mL. With “CXCL5: epithelial-derived neutrophil-activating protein 78, a CXC chemokine; human source”, in experiment [3], the “effector cells in lung, BALF and blood” value is listed as “suppressing pulmonary neutrophils infiltration”; the “prevalence of moderate to severe diffuse alveolar haemorrhage” value was 50.0%. For “CXCL6: MSC-derived protein CXCL6 (GCP-2)”, in experiment [1], the “optimal in vitro working concentration” value came to 10 ng/mL.

B1: IL-10: control molecule IL-10 (protein, UniProt P22301 19-178, looked up)
Interleukin-10: SPGQGTQSENSCTHFPGNLPNMLRDLRDAFSRVKTFFQMKDQLDNLLLKESLLEDFKGYLGCQALSEMIQFYLEEVMPQAENQDPDIKAHVNSLGENLKTLRLRLRRCHRFLPCENKSKAVEQVKNAFNKLQEKGIYKAMSEFDIFINYIEAYMTMKIRN
As to B1, in experiment [1], the “optimal in vitro working concentration” value turned out to be 10 ng/mL.

B2: CCL8: MSC-derived protein CCL8 (MCP-3) (protein, UniProt P80075 24-99, looked up)
C-C motif chemokine 8: QPDSVSIPITCCFNVINRKIPIQRLESYTRITNIQCPKEAVIFKTKRGKEVCADPKERWVRDSMKHLDQIFQNLKP
As to B2, in experiment [1], the “optimal in vitro working concentration” value was 10 ng/mL.

B3: OPG: upregulated MSC-derived protein OPG (protein, UniProt O00300 22-401, looked up)
Tumor necrosis factor …: ETFPPKYLHYDEETSHQLLCDKCPPGTYLKQHCTAKWKTVCAPCPDHYYTDSWHTSDECLYCSPVCKELQYVKQECNRTHNRVCECKEGRYLEIEFCLKHRSCPPGFGVVQAGTPERNTVCKRCPDGFFSNETSSKAPCRKHTNCSVFGLLLTQKGNATHDNICSGNSESTQKCGIDVTLCEEAFFRFAVPTKFTPNWLSVLVDNLPGTKVNAESVERIKRQHSSQEQTFQLLKLWKHQNKDQDIVKKIIQDIDLCENSVQRHIGHANLTFEQLRSLMESLPGKKVGAEDIEKTIKACKPSDQILKLLSLWRIKNGDQDTLKGLMHALKHSKTYHFPKTVTQSLKKTIRFLHSFTMYKLYQKLFLEMIGNQVQSVKISCL
Regarding B3, the “optimal in vitro working concentration” value in experiment [1] stood at 10 ng/mL.
